Laboratory results reported in the supplement of paper PMC4604168 (melanoma cell lines).
The list shows a part of the results. Repeats are few or missing, and single values can be far off.

Assays:
Assay in all cases: cell count relative to DMSO control; melanoma cells; higher = more viable cells
Details in all cases: library dose: low library concentration; 72 h
MZ2-MEL = tested on: MZ2-MEL
MeWo = tested on: MeWo
RPMI7951 = tested on: RPMI7951
RVH-421 = tested on: RVH-421
SkMel28 = tested on: SkMel28
SkMel30 = tested on: SkMel30
UACC62 = tested on: UACC62
WM115 = tested on: WM115
WM1716 = tested on: WM1716
WM1745 = tested on: WM1745
WM3526 = tested on: WM3526
WM3619 = tested on: WM3619
WM451Lu = tested on: WM451Lu
SkMel2 = tested on: SkMel2
SkMel5 = tested on: SkMel5
UACC257 = tested on: UACC257
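Also: cell number obtained by counting DAPI-stained nuclei in high-throughput microscope images with image analysis software, screen run in 1,536-well plates.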

SMILES | cell count (MZ2-MEL) | cell count (MeWo) | cell count (RPMI7951) | cell count (RVH-421) | cell count (SkMel28) | cell count (SkMel30) | cell count (UACC62) | cell count (WM115) | cell count (WM1716) | cell count (WM1745) | cell count (WM3526) | cell count (WM3619) | cell count (WM451Lu) | cell count (SkMel2) | cell count (SkMel5) | cell count (UACC257)
Cn1cnc2c(F)c(Nc3ccc(Br)cc3Cl)c(C(=O)NOCCO)cc21 [selumetinib] + CO[C@H]1C[C@@H]2CC[C@@H](C)[C@@](O)(O2)C(=O)C(=O)N2CCCC[C@H]2C(=O)O[C@H]([C@H](C)C[C@@H]2CC[C@@H](OCCO)[C@H](OC)C2)CC(=O)[C@H](C)/C=C(\C)[C@@H](O)[C@@H](OC)C(=O)[C@H](C)C[C@H](C)/C=C/C=C/C=C/1C [everolimus] (first compound 0.015 µM, partner dose 0.02 µM) | 70.9% | 68.4% | 82% | 73.5% | 49.5% | 46.3% | 43.5% | 68.3% | 79.9% | 75.6% | 58.9% | 64% | 83.1% |  |  | 
C[C@]1(O)C[C@@H](c2nc(-c3ccc4ccc(-c5ccccc5)nc4c3)c3c(N)nccn32)C1 + C[C@@H](Oc1cc(-c2cnn(C3CCNCC3)c2)cnc1N)c1c(Cl)ccc(F)c1Cl [Crizotinib] (first compound 0.4 µM, partner dose 0.2 µM) | 95.8% | 78.3% | 96.5% | 111% | 93.2% | 77.6% | 93.7% | 104% | 92% | 86.3% | 81.4% | 100% | 91.2% |  |  | 
Cn1cnc2c(F)c(Nc3ccc(Br)cc3Cl)c(C(=O)NOCCO)cc21 [selumetinib] + Cc1cc([N+](=O)[O-])ccc1NS(=O)(=O)c1cc(Cl)ccc1Cl [FH535] (first compound 0.015 µM, partner dose 1 µM) |  | 97.9% | 108% | 90.6% | 81% | 62.1% | 64.7% | 76.8% | 107% | 87.5% | 77.1% | 85% | 85.4% | 60.3% | 116% | 99.9%
COc1cc([C@@H]2c3cc4c(cc3[C@@H](O[C@@H]3O[C@@H]5CO[C@@H](C)O[C@H]5[C@H](O)[C@H]3O)[C@H]3COC(=O)[C@H]23)OCO4)cc(OC)c1O [etoposide] + Cn1nnc2c(C(N)=O)ncn2c1=O [temozolomide] (first compound 0.02 µM, partner dose 2 µM) |  | 88.9% | 103% | 92.2% | 82.4% | 93.8% | 56.1% | 94% | 75.7% | 84.6% | 89.8% | 85.1% | 90.7% | 99.5% |  | 
C[C@]1(O)C[C@@H](c2nc(-c3ccc4ccc(-c5ccccc5)nc4c3)c3c(N)nccn32)C1 + COc1ccc(-c2ccc3c(N4CCOCC4)nc(N4C[C@@H](C)O[C@@H](C)C4)nc3n2)cc1CO [KU0063794] (first compound 0.4 µM, partner dose 0.02 µM) |  | 97.9% | 113% | 74.9% | 89.3% | 73.5% | 86.3% | 102% | 106% | 79.6% | 68.2% | 98% | 93.8% | 68.9% | 71.7% | 74.4%
C[C@]1(O)C[C@@H](c2nc(-c3ccc4ccc(-c5ccccc5)nc4c3)c3c(N)nccn32)C1 + CC(=O)c1c(C)c2cnc(Nc3ccc(N4CCNCC4)cn3)nc2n(C2CCCC2)c1=O [palbociclib] (first compound 0.4 µM, partner dose 0.04 µM) |  | 86.1% | 84.4% | 105% | 92.5% | 74.3% | 76.1% | 86% | 84.2% | 80.9% | 71.2% | 85.8% | 92.1% |  |  | 
CCN(CC)CCNC(=O)c1c(C)[nH]c(/C=C2\C(=O)Nc3ccc(F)cc32)c1C [sunitinib] + O=C(O)C(=O)Nc1sc2c(c1C(=O)O)CCNC2 [TCS401] (first compound 0.4 µM, partner dose 1.66667 µM) |  | 88.4% | 97.8% | 112% | 93.2% | 73.2% | 91.2% | 95.4% | 144% | 77% | 113% | 93.2% | 99.6% | 114% | 104% | 96.4%
